Laboratory results as given in PubChem BioAssay AID2546 (National Center for Advancing Translational Sciences (NCATS), 2010).
The campaign covered roughly 310,000 compounds. About 11,000 (3.5%) were called active. The shares of active, inactive and inconclusive entries below differ from those in the screen. Calls follow the shape of the dose curve; as a rule, active = well fitted inhibition curve with a large enough effect; inconclusive = small, poorly fitted or top-dose-only effect, or effect the other way; inactive = flat fitted curve, though single readings scatter. No potency is given beside an inconclusive call; the fits are too rough.

Experiment: VP16 counterscreen qHTS for inhibitors of ROR gamma transcriptional activity;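 also: Gal4-VP16 expression switched on by copper sulfate through the metallothionein promoter; nearly all actives have a fitted effect of over 50% in size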
Conditions: Drosophila S2 Gal4-VP16 UAS-luciferase, luminescence, 20 h; activity, negative = inhibition: at 53.6 µM (top of the series)
% is scaled to controls: 0 for no effect and ±100 for the full control effect; potency is read from the fitted curve at half-maximal effect; tags tell the direction and shape of the fitted curve.

SMILES	Potency	activity, negative = inhibition
O=c1n(Cc2ccc(Cl)cc2)c2sc3c(c2c2ncnn12)CCCC3	inconclusive [inhibitor, single point]	–
CCOC(=O)N1CCC(NCCNC(=O)c2cccs2)CC1	inactive	–
COC(=O)c1cnn(-c2ccccc2)c1/C=N/NC(=S)Nc1ccc(Cl)cc1	active: 2 µM	–
Cc1cc(C)c(SCCc2ccncc2)c(C)c1	active: 11.2 µM	–
O=C(Cc1c(F)cccc1Cl)Nc1ncc([N+](=O)[O-])s1	inconclusive [inhibitor, single point]	–
Cc1ccc(/C=N/Nc2ncc(Cl)cc2Cl)s1	active: 7.08 µM	–
COc1ccc2c(c1)c(C(=O)CN1CCc3ccccc3C1)c(C)n2C	inactive	–
CN(C)/C=C(\C#N)c1nc2ccccc2[nH]1	inactive	–
CN(C)S(=O)(=O)c1ccc(C(=O)Nc2nnc(-c3ccco3)o2)cc1	active: 3.16 µM	–
Cc1cc(/C=C2\C(=N)N3N=CSC3=NC2=O)c(C)n1Cc1ccccc1	inconclusive [inhibitor, single point]	–
CC(C)(C)c1ccc(N=C2SCC(=O)N2Cc2cccs2)cc1	inconclusive [inhibitor, single point]	–
COc1ccc(C(N)c2nccc3cc(OC)c(OC)cc23)cc1OC (stereo not given)	inactive	–
CSc1nc(N)c(C(=O)NC2CCCCC2)s1	inactive	–
Cc1c(C(=O)Oc2cccc3cccnc23)cccc1[N+](=O)[O-]	active: 3.16 µM	–
O=C(CCCc1ccccc1)NCCc1ccc(F)cc1	inconclusive [activator, full curve]	–
O=C(COc1ccccc1)Nc1nnc(-c2ccccc2)o1	active: 10 µM	–
COc1ccc(CN2CCN(C(=O)C3CC(=O)N(C4CCCCCC4)C3)CC2)c(OC)c1OC (stereo not given)	inconclusive [inhibitor, single point]	–
Cc1cccc(NC(=S)NNC(=O)c2ccc(O)cc2O)c1C	active: 20 µM	–
CCOc1ccc2cc(/C=C/C(=O)c3ccco3)c(Cl)nc2c1	inconclusive [inhibitor, full curve]	–
Cn1ncc2c(O/N=C(\N)c3ccc(C(F)(F)F)cc3)ncnc21	inconclusive [inhibitor, partial curve]	–
Cc1ccc(C(=O)N2CCOCC2)c(F)c1F	inconclusive [inhibitor, single point]	–
Nc1ccc(N2CCN(c3ccc(F)cc3)CC2)cc1	inactive	–
CCOC(=O)c1sc(NC(=O)c2ccncc2)c(C#N)c1C	inconclusive [inhibitor, single point]	–
Cc1ccc(-c2nnc(SCC(=O)N/N=C/c3cccs3)n2-c2ccc(C)cc2)cc1	inconclusive [inhibitor, single point]	–
CC(NC(=S)Nc1ccc(F)cc1)c1ccccc1 (stereo not given)	active: 7.94 µM	–

SMILES	Potency	activity, negative = inhibition
CC(C)(C)C1=CC(=O)C(N2CCOCC2)=CC1=O	inconclusive [inhibitor, single point]	–
CC(=O)c1cccc(CN2CCN(C(C)C)C(CCO)C2)c1 (stereo not given)	inactive	–
CCOC(=O)CN(Cc1cc(OC)cc(N(C)C)c1OC)C(=O)C1CC(CO[Si](C)(C)C(C)(C)C)=CN1C(=O)OC(C)(C)C (stereo not given)	inactive	–
COc1ccc(/C=N/NC(=O)c2ccn[nH]2)cc1CN1CCOCC1	inactive	–
Cc1nc2ccccc2n1Cc1ccccc1Br	active: 12.6 µM	–
CCN1C(=O)[C@@H]2[C@H]3C(=CC[C@H]2C1=O)C(=O)[C@H]1OC1[C@H]3O (stereo not given in full)	inconclusive [inhibitor, single point]	–
CC(C)=CCC/C(C)=C/CO/N=C1/C[C@@H](O)[C@@H](O)[C@@H]2[C@@H]3C(=O)N(c4cccc(Oc5ccccc5)c4)C(=O)[C@H]3CC[C@@H]12	–	inactive: -3.3% [at 10 µM]
CC1=NN(C(=O)c2ccccc2Br)C(O)(c2ccc(Cl)cc2)C1 (stereo not given)	active: 8.91 µM	–
Cc1cc(/C=N\NC(=O)c2cccs2)c(C)n1-c1ccc2ncccc2c1	inconclusive [inhibitor, single point]	–
Cc1ccc(NC(=S)NNC(=O)CSc2nc3ccccc3c(=O)n2-c2ccc(C)cc2)cc1	inconclusive [inhibitor, single point]	–
Cc1[nH]c2ccccc2c1SCCNC(=O)c1ccc(S(=O)(=O)N2CCCC2)cc1	inactive	–
CC(=O)c1ccc(OCc2cc(C(=O)N3CCCCCCC3)no2)cc1	inconclusive [inhibitor, single point]	–
COc1ccc(C2C(C#N)=C(N)Oc3n[nH]c(C)c32)cc1CSc1ccccn1 (stereo not given)	inconclusive [inhibitor, single point]	–
CCCCn1c(=S)[nH]c2ccc(N3CCOCC3)cc2c1=O	active: 7.08 µM	–
Cc1cccc(NC(=S)/N=C(\N)Nc2nc(C)c3ccccc3n2)c1	active: 5.01 µM	–
O=C(NCc1nc(-c2ccc(C(F)(F)F)cc2)no1)Nc1ccc(OC(F)(F)F)cc1	inconclusive [inhibitor, single point]	–
Cc1ccc2[nH]c(=O)c(NC(N)=S)nc2c1	inconclusive [inhibitor, single point]	–
Cc1ccc(C(=O)NCCCNC(=O)c2ccco2)cc1	inactive	–
Cc1cccc(C(=O)Nc2sc3c(c2C#N)CCCCC3)c1	inconclusive [inhibitor, partial curve]	–
CC(=O)NCCc1cc2ccc(C)c(C)c2[nH]c1=O	inactive	–
O=C(CN1C(=O)NC(Cc2c[nH]c3ccccc23)C1=O)Nc1cccc(S(=O)(=O)N2CCOCC2)c1 (stereo not given)	inactive	–
FC(F)Oc1ccc(/C=N/NC(=S)Nc2cc(C(F)(F)F)ccc2Cl)cc1	active: 5.62 µM	–
COc1cccc(C2C3=C(Nc4[nH]n(-c5ccccc5)c(=O)c42)c2ccccc2C3=O)c1 (stereo not given)	inactive	–
CCOC(=O)c1ccc(N=c2sc(C(=O)OC)cc(=O)n2CCCN2CCOCC2)cc1	inactive	–
CCCS(=O)(=O)N1CCCC(C(=O)c2cccc(Cl)c2)C1 (stereo not given)	inactive	–

SMILES	Potency	activity, negative = inhibition
CC(C)(C)c1ccc(S(=O)(=O)NNC(=O)c2cc3ccccc3[nH]2)cc1	inconclusive [inhibitor, partial curve]	–
Cc1cc(NC(=O)c2ccc3c(c2)OCCO3)ccc1NC(=O)c1cc2ccccc2o1	inconclusive [inhibitor, partial curve]	–
O=C(OCC(=O)N1CCN(C(=O)c2ccco2)CC1)c1cc(-c2ccc(Cl)c(Cl)c2Cl)nc2ccccc12	inconclusive [activator, single point]	–
COc1ccc(CNC(=O)CCSc2nc(-c3ccc4c(c3)OCO4)cc(C(F)(F)F)n2)cc1	inconclusive [inhibitor, full curve]	–
Cc1csc(-c2coc3cc(O[C@@H]4O[C@H](CO)[C@@H](O)[C@@H](O)[C@H]4O)ccc3c2=O)n1	active: 15.8 µM	–
NS(=O)(=O)c1ccc(Sc2nc3ccccc3s2)c([N+](=O)[O-])c1	active: 10 µM	–
CC(C)(C)OC(=O)NCc1ccc(CNC(=O)c2[nH]cnc2C(=O)N[C@@H](Cc2ccccc2)C(=O)OC(C)(C)C)cc1	active: 20 µM	–
CCC(C)(C)c1ccc(Oc2ccc(NC(=O)COC(=O)C3=COCCO3)cc2)cc1	inconclusive [inhibitor, partial curve, poor fit]	–
COc1ccc(C(=O)c2oc3ccccc3c2N)cc1	active: 10 µM	–
O=C(Nc1ccc(S(=O)(=O)N2CCOCC2)cc1)c1cc([N+](=O)[O-])ccc1Cl	inactive	–
CC(C)N(Cc1ccccc1)C(=S)NC(=O)C1(C)CC1(Cl)Cl (stereo not given)	active: 2.51 µM	–
Cc1ccc(C)c(NC(=S)N2CCN(c3cccc(C(F)(F)F)c3)CC2)c1	active: 11.2 µM	–
Cc1cc(=O)n(CC(C)C)c(O)c1C#N	inactive	–
COc1ccc(Cc2nnc(NC(=O)Cn3cnc4c3c(=O)n(C)c(=O)n4C)s2)cc1OC	inconclusive [inhibitor, single point]	–
COc1cc(C2N(Cc3ccccc3)CCN2Cc2ccccc2)ccc1OC(C)=O	inconclusive [activator, single point]	–
Cc1ccc(NC(=O)CCOc2ccccc2)cc1S(=O)(=O)Nc1ccccc1Cl	inconclusive [inhibitor, single point]	–
CN(CC(=O)N1CCCCCC1)S(=O)(=O)c1ccc(Br)s1	inconclusive [activator, single point]	–
Cc1cc(C)n(-c2ccc(C(=O)NC3=NCCS3)cc2)n1	inactive	–
CC(=O)N1C2(C=CC1(C)C(=O)NCc1ccc(C)o1)CCCCC2 (stereo not given)	inconclusive [activator, single point]	–
COc1ccccc1NC(=O)c1nc[nH]c1C(=O)Nc1ccccc1OC	inconclusive [inhibitor, full curve]	–
COc1cccc(-c2csc(N3CCN(C(=S)Nc4ccccc4OC)CC3)n2)c1	inconclusive [inhibitor, single point]	–
COC(=O)C1=NN(C(=O)c2cccc(Cl)c2)C(O)(C(C)(C)C)C1 (stereo not given)	inconclusive [inhibitor, single point]	–
CN1C(=O)/C(=C2\SC(=S)N(CCCCCC(=O)O)C2=O)c2ccccc21	inactive	–
C=CCN1CCc2c(cc(O)c(O)c2Cl)C(c2cccc(C)c2)C1 (stereo not given)	inactive	–
CCc1cc(C(=O)Cc2ccc(F)cc2)c(O)cc1O	inconclusive [inhibitor, single point]	–
